# According to PubChem BioAssay AID686979 (National Center for Advancing Translational Sciences (NCATS), 2013):
# Where “and” joins values, the source holds several entries; their conditions need not be identical. Identical values can stand only once. Among all 420,000 compounds or so, about 50,000 (12%) were called active. The shares of active, inactive and inconclusive entries below differ from those in the screen. Calls come from the whole dose curve; as a rule, active = well fitted inhibition curve with a large enough effect; inconclusive = small, poorly fitted or top-dose-only effect; inactive = flat fitted curve, though single readings scatter. Potencies beside an inconclusive call are fits to weak or partial responses and may not hold up.
# Assay: qHTS for Inhibitors of human tyrosyl-DNA phosphodiesterase 1 (TDP1): qHTS in cells in presence of CPT; note: nearly all actives have a fitted effect of over 55% in size
# Details: chicken DT40 Tdp1-/-;hTDP1 cells + 20 nM CPT, ATP luminescence, 48 h; activity change, negative = growth inhibition: at 46.2 µM (top of the series) unless noted
# Method in brief: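 Chicken DT40 Tdp1-/- cells complemented with human TDP1, 400 cells/well, exposed to compounds plus 20 nM camptothecin for at least 48 h at 37 C; viability read as ATP content by CellTiter-Glo luminescence.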
# % is set by controls: 0 for no effect and ±100 for the full control effect; potency is the fitted concentration of half-maximal effect; tags give direction and shape of the fitted curve.
SMILES,Potency,"activity change, negative = growth inhibition"
Cc1c(Cl)cccc1NC(=O)Nc1ccc(C(=O)N2CCCC2)cc1,"inconclusive: 25.9 µM [inhibitor, single point]",
O=C(CSc1nc2ccsc2c(=O)n1Cc1ccc(F)cc1)NCc1ccc(Cl)cc1,"inconclusive: 29.1 µM [inhibitor, single point]",
COc1cc(/C=N/N(C)c2ccccc2)cc(Cl)c1O,"inconclusive: 29.1 µM [inhibitor, single point]",
O=C(c1ccc(-n2nc(C(F)(F)F)c3c2CCCC3)cc1)N1CCOCC1,"inconclusive: 29.1 µM [inhibitor, single point]",
COC1C=COC2(C)Oc3c(C)c(O)c4c(O)c(c(CN5CCN(C)CC5)c(O)c4c3C2=O)NC(=O)C(C)=CC=CC(C)C(O)C(C)C(O)C(C)C(OC(C)=O)C1C (configuration not stated),active: 23.1 µM,
Cc1cc(Nc2ccc(Br)cc2)n2nc(-c3ccccc3C)nc2n1,"inconclusive: 29.1 µM [inhibitor, single point]",
CNC(=O)CN(c1ccc(C23CC4CC(CC(C4)C2)C3)cc1)S(C)(=O)=O,"inconclusive: 29.1 µM [inhibitor, single point]",
N/C(=N\OC(=O)c1cccc([N+](=O)[O-])c1)c1ccccn1,"inconclusive: 20.6 µM [inhibitor, partial curve]",
CCCCCc1ccc(-c2cn(Cc3ccc(C(=O)c4ccccc4)cc3)nn2)cc1,active: 5.62 µM and active: 3.26 µM,
CCOc1ccccc1NC(=O)c1ccc(NC(=O)c2ccco2)cc1,"inconclusive: 23.1 µM [inhibitor, single point]",
O=C(N/N=C/c1cccnc1)c1cc(O)c(O)c(O)c1,"inconclusive: 18.4 µM [inhibitor, single point]",
COc1ccc(-n2c(NNC(C)=O)nc3sc4c(c3c2=O)CCCC4)cc1,active: 3.26 µM,
COc1cc(/C=C2/NC(=O)N(c3cccc(Cl)c3)C2=O)ccc1O,"inconclusive: 18.4 µM [inhibitor, single point]",
Nc1nc(NCCN2CCOCC2)nc(NCc2ccccc2)c1[N+](=O)[O-],"inconclusive: 18.4 µM [inhibitor, single point]",
CCOC(=O)[C@]12CCCC=C1N(CCC1=CCCCC1)C(=O)[C@H](CC(=O)NCc1ccc(C)o1)C2,"inconclusive: 18.4 µM [inhibitor, single point]",
N#Cc1ccccc1NS(=O)(=O)c1cc2c3c(c1)CCC(=O)N3CCC2,,inactive: -1.93%
CCCCn1c(N)c(N(CC(C)C)C(=O)CCCc2nc3ccccc3c(=O)[nH]2)c(=O)[nH]c1=O,,inactive: 1.54%
O=C(CCS(=O)(=O)Cc1ccccc1)N1CCN(c2ccc([N+](=O)[O-])cc2)CC1,"inconclusive: 18.4 µM [inhibitor, single point]",
CCCCN(C(=O)c1ccc(N2CCCC2=O)cc1)c1c(N)n(CCCC)c(=O)[nH]c1=O,,inactive: 2.04%
Cc1cc(O)c(C(C)C)cc1NC(=O)Nc1cc(Cl)ccc1Cl,"inconclusive: 29.1 µM [inhibitor, single point]",
COC(=O)[C@]12CCCCC=C1N(Cc1ccc(Cl)cc1Cl)C(=O)[C@H](CC(=O)NCC1CCCCC1)C2,"inconclusive: 32.6 µM [inhibitor, single point]",

SMILES,Potency,"activity change, negative = growth inhibition"
COc1ccccc1CNC(=O)c1cc(-c2cc(F)ccc2OC(C)C)n[nH]1,active: 16.4 µM,
O=C(O)CC1S/C(=N\N=C/c2ccccc2)N(c2ccc(O)cc2)C1=O (configuration not stated),,inactive: -2.19%
CCCCn1nc(C(=O)N2CCN(S(=O)(=O)c3ccccc3)CC2)c2ccccc2c1=O,"inconclusive: 32.6 µM [inhibitor, single point]",
CN(c1ccccc1)S(=O)(=O)c1ccc(Cl)c(C(=O)NC2=NCCS2)c1,"inconclusive: 20.6 µM [inhibitor, single point]",
Cc1ccc(NC(=O)CN(C)C(=O)COC(=O)c2ccc(Cl)cc2O)cc1,"inconclusive: 23.1 µM [inhibitor, single point]",
COc1ccc(NC(=O)CN2CCN(S(=O)(=O)N3CCCCCC3)CC2)cc1,,inactive: 1.79%
COc1ccc(N2CCN(C(=O)CCNS(=O)(=O)c3ccc(C)cc3)CC2)cc1,"inconclusive: 29.1 µM [inhibitor, single point]",
COc1ccc(S(=O)(=O)Nc2ccc(S(=O)(=O)N3CCCCC3)cc2)cc1,,inconclusive: -34.7% [inhibitor]
Cc1ccc(NC(=O)Nc2nnc(-c3ccncc3)s2)cc1,active: 18.4 µM,
CCOC(=O)c1c(N2C(=O)Nc3ccccc3N2O)sc2c1CCCC2,,inactive: 2.69%
CCOc1ccc(CN2CCN(Cc3nc(C(C)C)cs3)CC2CCO)cc1 (configuration not stated),"inconclusive: 23.1 µM [inhibitor, single point]",
Oc1ccc(-c2nc(-c3ccc(F)cc3)c(-c3ccncc3)[nH]2)cc1,"inconclusive: 35.5 µM [inhibitor, single point] [middle of 4 runs]",
Cc1onc(-c2ccccc2)c1C(=O)Nc1nnc(COc2ccc(Cl)cc2)s1,active: 5.8 µM,
COc1cccc(CNC(=O)CSCC(=O)Nc2ccc(C)cc2)c1,,inactive: -0.39%
O=C(CSc1ccsc1[N+](=O)[O-])N1CCN(c2ccc(Cl)cc2)CC1,"inconclusive: 6.51 µM [inhibitor, partial curve]",
Cc1ccc(S(=O)(=O)N2CCC[C@H]2C(=O)OCCN2C(=O)c3ccccc3C2=O)cc1,,inactive: -6.13%
CCC(C)c1ccc(OCC(=O)Nc2cccc3ccc(C)nc23)cc1 (configuration not stated),"inconclusive: 13 µM [inhibitor, single point]",
Cc1ccc2c(CN3CC(C)CC(C)C3)cc(=O)oc2c1C (configuration not stated),"inconclusive: 29.1 µM [inhibitor, single point]",
CCOC(=O)c1ccccc1NC(=O)c1c(F)c(F)c(F)c(F)c1F,"inconclusive: 32.6 µM [inhibitor, single point]",
C=C(C)C1COc2cc3oc(=O)ccc3cc2O1 (configuration not stated),,inactive: -8.25%
Cc1ccnc(SCC(=O)c2ccc(Br)cc2)c1C#N,"inconclusive: 25.9 µM [inhibitor, single point]",
